These results are taken from patent US20210038681A1, “PHARMACEUTICAL COMPOSITION FOR TREATING VIRAL HEPATITIS C” (priority 2018, published 2021).

The test system of the assay is HCV genotypes 1a, 1b, 2a NS5A, 3a NS5A, 4a NS5A, 5a NS5A, 6a NS5A, and 7a NS5A replicon cells. Kind of assay: Standard 3-day HCV replicon assays, summary over genotypes. Type of assay: cell-based. For orientation: In antiviral work, replicon cells carry a viral genome segment that copies itself.

Where “and” joins values, the source holds several entries; their conditions need not be identical. Equal values may be shown once. Bounds are passed on as bounds.

Broadly, the EC90 is the point of the concentration-response curve where the effect stands at 90%.

`COC(=O)N[C@H](C(=O)N1CCC[C@H]1c1ncc(-c2ccc3cc(-c4ccc5nc([C@@H]6CCCN6C(=O)[C@@H](NC(=O)OC)C(C)C)[nH]c5c4)ccc3c2)[nH]1)C(C)C` [ASC16, Ravidasvir]: the EC90 (Hepatitis C virus, read-out: EC90 for all major HCV genotypes) is ≤ 3.35 nM and < 0.003 µg/mL. For the setting “Hepatitis C virus, read-out: susceptible concentrations (EC50) against other HCV genotypes”, the EC50 was 0.04 to 1.14 nM. For the same compound, the “concentration at which inhibition rate of replication of genotype 1 virus reached 90%” value (genotype 1 virus (1a and 1b)) is ≤ 0.32 nM and ≤ 0.24 ng/mL.
